Reference: PMC12820563, “FoxP3 forms a head-to-head dimer in vivo and stabilizes its multimerization on adjacent microsatellites”
The other results are listed elsewhere or left out.

Biological target: T1, MBP-FoxP1dN (Mus musculus, UniProt P58462 326-579)
T1 sequence: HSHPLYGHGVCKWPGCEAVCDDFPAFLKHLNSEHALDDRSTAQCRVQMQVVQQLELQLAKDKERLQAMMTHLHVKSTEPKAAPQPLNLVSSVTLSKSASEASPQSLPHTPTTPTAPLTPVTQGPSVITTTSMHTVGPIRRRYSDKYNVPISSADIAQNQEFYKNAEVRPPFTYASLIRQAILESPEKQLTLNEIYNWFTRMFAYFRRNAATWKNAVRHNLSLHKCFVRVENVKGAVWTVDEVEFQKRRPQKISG
Assay: PD-seq (MBP pull-down with sequencing); 20 mM Tris-HCl pH 7.5, 100 mM NaCl, 1.5 mM MgCl2, 0.4 uM protein, 0.1 uM dsDNA library, 30 min, room temperature, amylose pull-down; high values mean tight binding
Settings: protein: recombinant; tags: His6-MBP; chain copies: 2; dsDNA, one strand shown
How it was run: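 Protein and DNA were mixed at 0.4 µM and 0.1 µM and held for 30 min at room temperature in Tris pH 7.5 buffer with NaCl and MgCl2; the protein was a His6-MBP-tagged, N-terminally truncated mouse FoxP3 or FoxP1 fragment from E. coli, and the DNA a Klenow-filled double-stranded degenerate library. Amylose resin captured the complexes, which were washed three times. Binding is read as reads-per-million enrichment of pull-down versus input after Illumina sequencing, with replicates pooled.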

Sequence | binding signal
GATGATTGTTCTCCCAGCTGATGAATTTGGGGAATCGAGTAAACAAATTTTCCTAATCTTTCTGTTCAAGCGCCATCTAC | 0.916 RPM ratio (pull-down/input)
GATGATTGTTCTCCCAGCTGATGAATTTTTGCCGTCGAGTAAACAAATTTTCCTAATCTTTCTGTTCAAGCGCCATCTAC | 0.905 RPM ratio (pull-down/input)
GATGATTGTTCTCCCAGCTGATGAATTAACTCCGTCGAGTAAACAAATTTTCCTAATCTTTCTGTTCAAGCGCCATCTAC | 0.847 RPM ratio (pull-down/input)
GATGATTGTTCTCCCAGCTGATGAATTAAAAGAATCGAGTAAACAAATTTTCCTAATCTTTCTGTTCAAGCGCCATCTAC | 1 RPM ratio (pull-down/input)
GATGATTGTTCTCCCAGCTGATGAATTTACTCACTCGAGTAAACAAATTTTCCTAATCTTTCTGTTCAAGCGCCATCTAC | 1.34 RPM ratio (pull-down/input)
GATGATTGTTCTCCCAGCTGATGAATTTATCCCATCGAGTAAACAAATTTTCCTAATCTTTCTGTTCAAGCGCCATCTAC | 1.08 RPM ratio (pull-down/input)
GATGATTGTTCTCCCAGCTGATGAATTATGGAGCTCGAGTAAACAAATTTTCCTAATCTTTCTGTTCAAGCGCCATCTAC | 0.861 RPM ratio (pull-down/input)
GATGATTGTTCTCCCAGCTGATGAATTAGATGGCTCGAGTAAACAAATTTTCCTAATCTTTCTGTTCAAGCGCCATCTAC | 0.872 RPM ratio (pull-down/input)
GATGATTGTTCTCCCAGCTGATGAATTCGCTACCTCGAGTAAACAAATTTTCCTAATCTTTCTGTTCAAGCGCCATCTAC | 0.85 RPM ratio (pull-down/input)
GATGATTGTTCTCCCAGCTGATGAATTCTACAATTCGAGTAAACAAATTTTCCTAATCTTTCTGTTCAAGCGCCATCTAC | 1.01 RPM ratio (pull-down/input)
GATGATTGTTCTCCCAGCTGATGAATTTGTACGTTCGAGTAAACAAATTTTCCTAATCTTTCTGTTCAAGCGCCATCTAC | 1.11 RPM ratio (pull-down/input)
GATGATTGTTCTCCCAGCTGATGAATTACTGGCATCGAGTAAACAAATTTTCCTAATCTTTCTGTTCAAGCGCCATCTAC | 1.1 RPM ratio (pull-down/input)
GATGATTGTTCTCCCAGCTGATGAATTAACATAATCGAGTAAACAAATTTTCCTAATCTTTCTGTTCAAGCGCCATCTAC | 1.45 RPM ratio (pull-down/input)
GATGATTGTTCTCCCAGCTGATGAATTAGTACCGTCGAGTAAACAAATTTTCCTAATCTTTCTGTTCAAGCGCCATCTAC | 0.989 RPM ratio (pull-down/input)
GATGATTGTTCTCCCAGCTGATGAATTATGTCCTTCGAGTAAACAAATTTTCCTAATCTTTCTGTTCAAGCGCCATCTAC | 1.05 RPM ratio (pull-down/input)
GATGATTGTTCTCCCAGCTGATGAATTCCAATAGTCGAGTAAACAAATTTTCCTAATCTTTCTGTTCAAGCGCCATCTAC | 0.816 RPM ratio (pull-down/input)

Sequence | binding signal
GATGATTGTTCTCCCAGCTGATGAATTTACTGCATCGAGTAAACAAATTTTCCTAATCTTTCTGTTCAAGCGCCATCTAC | 1.33 RPM ratio (pull-down/input)
GATGATTGTTCTCCCAGCTGATGAATTCTACTGGTCGAGTAAACAAATTTTCCTAATCTTTCTGTTCAAGCGCCATCTAC | 0.898 RPM ratio (pull-down/input)
GATGATTGTTCTCCCAGCTGATGAATTCCATGGTTCGAGTAAACAAATTTTCCTAATCTTTCTGTTCAAGCGCCATCTAC | 0.732 RPM ratio (pull-down/input)
GATGATTGTTCTCCCAGCTGATGAATTAAATCGTTCGAGTAAACAAATTTTCCTAATCTTTCTGTTCAAGCGCCATCTAC | 0.876 RPM ratio (pull-down/input)
GATGATTGTTCTCCCAGCTGATGAATTGGTACATTCGAGTAAACAAATTTTCCTAATCTTTCTGTTCAAGCGCCATCTAC | 1.1 RPM ratio (pull-down/input)
GATGATTGTTCTCCCAGCTGATGAATTGTTTCCCTCGAGTAAACAAATTTTCCTAATCTTTCTGTTCAAGCGCCATCTAC | 1.41 RPM ratio (pull-down/input)
GATGATTGTTCTCCCAGCTGATGAATTATTTCGATCGAGTAAACAAATTTTCCTAATCTTTCTGTTCAAGCGCCATCTAC | 1.08 RPM ratio (pull-down/input)
GATGATTGTTCTCCCAGCTGATGAATTCCATTGCTCGAGTAAACAAATTTTCCTAATCTTTCTGTTCAAGCGCCATCTAC | 0.853 RPM ratio (pull-down/input)
GATGATTGTTCTCCCAGCTGATGAATTCAATTGATCGAGTAAACAAATTTTCCTAATCTTTCTGTTCAAGCGCCATCTAC | 1.02 RPM ratio (pull-down/input)
GATGATTGTTCTCCCAGCTGATGAATTGCGGGCTTCGAGTAAACAAATTTTCCTAATCTTTCTGTTCAAGCGCCATCTAC | 0.984 RPM ratio (pull-down/input)
GATGATTGTTCTCCCAGCTGATGAATTCTCTGACTCGAGTAAACAAATTTTCCTAATCTTTCTGTTCAAGCGCCATCTAC | 0.801 RPM ratio (pull-down/input)
GATGATTGTTCTCCCAGCTGATGAATTTTAGCACTCGAGTAAACAAATTTTCCTAATCTTTCTGTTCAAGCGCCATCTAC | 0.872 RPM ratio (pull-down/input)
GATGATTGTTCTCCCAGCTGATGAATTGATATTATCGAGTAAACAAATTTTCCTAATCTTTCTGTTCAAGCGCCATCTAC | 1.92 RPM ratio (pull-down/input)
GATGATTGTTCTCCCAGCTGATGAATTAGGGTAATCGAGTAAACAAATTTTCCTAATCTTTCTGTTCAAGCGCCATCTAC | 1.25 RPM ratio (pull-down/input)
GATGATTGTTCTCCCAGCTGATGAATTTAGTTTGTCGAGTAAACAAATTTTCCTAATCTTTCTGTTCAAGCGCCATCTAC | 1.63 RPM ratio (pull-down/input)
